{
  "source": "patent US20080085246A1",
  "about": "“Use of Eugenol Acetate as an Agent Against Bad Breath” (SYMRISE GMBH & CO. KG, priority 2004, published 2008)",
  "system": "liquid medium inoculated with fresh morning saliva",
  "experiment": "In vitro test for reduction of bad breath (inoculated medium smelled by a panel of testers)",
  "details": "0.05% added to inoculated samples, 37 °C for some days",
  "protocol": "The test is based on the work of Goldberg and Rosenberg (Production of Oral Malodor in an in vitro System, S. Goldberg and M. Rosenberg, pp.143-150, in: Bad Breath—A Multidisciplinary Approach, eds: D. van Steenberghe, M. Rosenberg, Leuven University Press, 1996) and was adapted for better reproducibility.\nA sterile liquid medium inoculated with fresh morning saliva is incubated at 37 ° C. for some days and then smelled by a panel of testers.\nAn intensive, typical bad breath odour had formed. Non-inoculated controls have only a weak smell of the medium.\nTriclosan® (5-chloro-2-(2,4-dichlorophenoxy)phenol) was added to inoculated samples in a concentration of 0.05% as a control for the tests.",
  "data": [
    {"smiles": "Oc1cc(Cl)ccc1Oc1ccc(Cl)cc1Cl", "note": "[Triclosan®, 5-chloro-2-(2,4-dichlorophenoxy)phenol, reference compound]", "values": [
      {"measurement": "smell after the incubation time", "result": "same weak media smell as the non-inoculated samples"}
    ]}
  ]
}
